The list shows a part of the results. Most values come without repeats; read them as rough.
Legend:
Assay in all cases: cell count relative to DMSO control; melanoma cells; higher = more viable cells
Conditions in all cases: library dose: standard library concentration; 72 h
SkMel28 = test system: SkMel28
SkMel2 = test system: SkMel2
SkMel30 = test system: SkMel30
SkMel5 = test system: SkMel5
UACC257 = test system: UACC257
UACC62 = test system: UACC62
WM115 = test system: WM115
WM1716 = test system: WM1716
WM1745 = test system: WM1745
WM3526 = test system: WM3526
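Also: cells treated in 1,536-well plates, then fixed and DAPI-stained, with nuclei counted from automated high-throughput microscope images.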

Row | SMILES | cell count (SkMel28) [%] | cell count (SkMel2) [%] | cell count (SkMel30) [%] | cell count (SkMel5) [%] | cell count (UACC257) [%] | cell count (UACC62) [%] | cell count (WM115) [%] | cell count (WM1716) [%] | cell count (WM1745) [%] | cell count (WM3526) [%]
1 | N.N.[Cl][Pt][Cl] [cisplatin] + O=C(Nc1cccc(Cl)c1)Nc1ncc(CCNc2ncnc3ccsc23)s1 [SNS314] (first compound 8 µM, partner dose 0.004 µM) | 101 | 90.2 | 98.8 | 118 | 83.3 | 82.5 | 60.3 | 71.1 | 96.1 | 81
2 | Cn1cc(C2=C(c3cn(C4CCN(Cc5ccccn5)CC4)c4ccccc34)C(=O)NC2=O)c2ccccc21 [Enzastaurin] + NC(=O)Nc1cc(-c2cccc(F)c2)sc1C(=O)N[C@H]1CCCNC1 [AZD7762] (first compound 4 µM, partner dose 0.1 µM) | 40.1 | 72 | 80.9 | 78.5 | 99.3 | 59.3 | 68.9 | 58.7 | 30.9 | 67.8
3 | N.N.[Cl][Pt][Cl] [cisplatin] + O=C(O)c1ccc(-c2c[nH]c3ncc(-c4ccccc4)cc23)cc1C1CCCC1 [GSK650394] (first compound 8 µM, partner dose 0.8 µM) | 106 | 104 | 103 | 99.5 | 73.3 | 111 | 99.7 | 78.9 | 81.4 | 89.9
4 | Cn1cc(C2=C(c3cn(C4CCN(Cc5ccccn5)CC4)c4ccccc34)C(=O)NC2=O)c2ccccc21 [Enzastaurin] + Clc1ccc(Nc2nnc(Cc3ccncc3)c3ccccc23)cc1 [vatalanib] (first compound 4 µM, partner dose 10 µM) | 62 | 60.2 | 72.8 | 55.6 | 60.2 | 52.6 | 97.2 | 66.5 | 69.6 | 86.4
5 | Cn1cc(C2=C(c3cn(C4CCN(Cc5ccccn5)CC4)c4ccccc34)C(=O)NC2=O)c2ccccc21 [Enzastaurin] + C=CCNC1=C2C[C@@H](C)C[C@H](OC)[C@H](O)[C@@H](C)/C=C(\C)[C@H](OC(N)=O)[C@@H](OC)/C=C\C=C(/C)C(=O)NC(=CC1=O)C2=O [Tanespimycin] (first compound 4 µM, partner dose 0.01 µM) | 53.3 | 51.2 | 88.7 | 75.1 | 104 | 50.3 | 21.3 | 82 | 21.1 | 73.4
6 | Cn1cc(C2=C(c3cn(C4CCN(Cc5ccccn5)CC4)c4ccccc34)C(=O)NC2=O)c2ccccc21 [Enzastaurin] + Cn1c(Nc2ccc(C(F)(F)F)cc2)nc2cc(Oc3ccnc(-c4ncc(C(F)(F)F)[nH]4)c3)ccc21 [CHIR265] (first compound 4 µM, partner dose 0.4 µM) | 33.8 | 43.3 | 70.8 | 32.5 | 70.7 | 44.9 | 33.5 | 48.6 | 45.9 | 53.3
7 | Cn1cc(C2=C(c3cn(C4CCN(Cc5ccccn5)CC4)c4ccccc34)C(=O)NC2=O)c2ccccc21 [Enzastaurin] + CN(c1ncccc1CNc1nc(Nc2ccc3c(c2)CC(=O)N3)ncc1C(F)(F)F)S(C)(=O)=O [PF562271] (first compound 4 µM, partner dose 0.4 µM) | 73.1 | 73.3 | 89.2 | 48.6 | 76.8 | 47.5 | 68.2 | 62.3 | 55.1 | 82.3
8 | Cn1cc(C2=C(c3cn(C4CCN(Cc5ccccn5)CC4)c4ccccc34)C(=O)NC2=O)c2ccccc21 [Enzastaurin] + CN1CCN(c2ccc3nc(-c4c(N)c5c(F)cccc5[nH]c4=O)[nH]c3c2)CC1 [Dovitinib] (first compound 4 µM, partner dose 0.5 µM) | 39.6 | 46.4 | 85.6 | 47.9 | 69.1 | 64.9 | 82.3 | 62.1 | 26.2 | 69
9 | C[C@]12O[C@H](C[C@]1(O)CO)n1c3ccccc3c3c4c(c5c6ccccc6n2c5c31)CNC4=O [Lestaurtinib] + Cn1nnc2c(C(N)=O)ncn2c1=O [temozolomide] (first compound 0.02 µM, partner dose 10 µM) | 29.1 | 86 | 64.1 | 58.3 | 79.8 | 48.7 | 64.1 | 61.8 | 61.3 | 68.1
10 | C[As](C)SC[C@H](NC(=O)CC[C@H](N)C(=O)O)C(=O)NCC(=O)O [Darinaparsin] + O=c1cc(-c2cccc3c2Sc2ccccc2S3)oc(N2CCOCC2)c1 [KU55933] (first compound 2 µM, partner dose 5 µM) | 54.8 | 80.7 | 71.7 | 62.7 | 83.1 | 60.5 | 63.8 | 46 | 97.2 | 58
11 | C[As](C)SC[C@H](NC(=O)CC[C@H](N)C(=O)O)C(=O)NCC(=O)O [Darinaparsin] + O=C1NC(=O)/C(=C/c2ccc(-c3ccc(F)cc3O)o2)S1 [AS252424] (first compound 2 µM, partner dose 5 µM) | 118 | 78.7 | 90.9 | 88.1 | 102 | 145 | 80.4 | 72.4 | 84.7 | 73.2
12 | Cn1cc(C2=C(c3cn(C4CCN(Cc5ccccn5)CC4)c4ccccc34)C(=O)NC2=O)c2ccccc21 [Enzastaurin] + Cn1c(=O)n(-c2ccc(C(C)(C)C#N)cc2)c2c3cc(-c4cnc5ccccc5c4)ccc3ncc21 [NVP-BEZ235] (first compound 4 µM, partner dose 0.02 µM) | 59.9 | 76.9 | 75.2 | 74.4 | 114 | 77.8 | 82.4 | 101 | 97.9 | 108
13 | N.N.[Cl][Pt][Cl] [cisplatin] + Clc1ccc(Nc2nnc(Cc3ccncc3)c3ccccc23)cc1 [vatalanib] (first compound 8 µM, partner dose 10 µM) | 79.7 | 95.2 | 70.5 | 84.2 | 65.8 | 66.8 | 87.6 | 86 | 69.8 | 94
14 | N.N.[Cl][Pt][Cl] [cisplatin] + C#Cc1cccc(Nc2ncnc3cc(OCCOC)c(OCCOC)cc23)c1 [erlotinib] (first compound 8 µM, partner dose 4 µM) | 111 | 126 | 84 | 81.6 | 83.5 | 68 | 77.6 | 102 | 71.8 | 103
15 | C[As](C)SC[C@H](NC(=O)CC[C@H](N)C(=O)O)C(=O)NCC(=O)O [Darinaparsin] + CCCCCCCCCCCC1=C(O)C(=O)C=C(O)C1=O [Embelin] (first compound 2 µM, partner dose 6 µM) | 99.2 | 78.6 | 87 | 74.9 | 82.5 | 96.6 | 80.4 | 66.3 | 98 | 80.4
16 | C[C@]12O[C@H](C[C@]1(O)CO)n1c3ccccc3c3c4c(c5c6ccccc6n2c5c31)CNC4=O [Lestaurtinib] + O=C(O)c1ccc2c(c1)nc(Nc1cccc(Cl)c1)c1ccncc12 [CX4945] (first compound 0.02 µM, partner dose 2 µM) | 56.9 | 85.4 | 57.2 | 51.2 | 94.8 | 64.1 | 68.5 | 107 | 69.6 | 66.7
17 | C[C@]12O[C@H](C[C@]1(O)CO)n1c3ccccc3c3c4c(c5c6ccccc6n2c5c31)CNC4=O [Lestaurtinib] + CO[C@@H]1[C@H](N(C)C(=O)c2ccccc2)C[C@H]2O[C@]1(C)n1c3ccccc3c3c4c(c5c6ccccc6n2c5c31)C(=O)NC4 [Midostaurin] (first compound 0.02 µM, partner dose 0.4 µM) | 45.6 | 73.3 | 65.9 | 47.3 | 73.7 | 72.1 | 54.2 | 73.7 | 37.7 | 67
18 | C[C@]12O[C@H](C[C@]1(O)CO)n1c3ccccc3c3c4c(c5c6ccccc6n2c5c31)CNC4=O [Lestaurtinib] + C[C@]1(O)C[C@@H](c2nc(-c3ccc4ccc(-c5ccccc5)nc4c3)c3c(N)nccn32)C1 [OSI906] (first compound 0.02 µM, partner dose 2 µM) | 50.7 | 51.4 | 63 | 45.8 | 75.4 | 71.9 | 73.6 | 87.5 | 57.5 | 47
19 | C[C@]12O[C@H](C[C@]1(O)CO)n1c3ccccc3c3c4c(c5c6ccccc6n2c5c31)CNC4=O [Lestaurtinib] + Nc1ccn([C@@H]2O[C@H](CO)[C@@H](O)C2(F)F)c(=O)n1 [gemcitabine] (first compound 0.02 µM, partner dose 0.002 µM) | 89.4 | 96.4 | 62.7 | 73.7 | 92.6 | 79.3 | 59.8 | 46.4 | 46.5 | 87.2
20 | Cn1cc(C2=C(c3cn(C4CCN(Cc5ccccn5)CC4)c4ccccc34)C(=O)NC2=O)c2ccccc21 [Enzastaurin] + CN(NC(=O)CC(=O)NN(C)C(=S)c1ccccc1)C(=S)c1ccccc1 [STA4783] (first compound 4 µM, partner dose 0.03 µM) | 26.7 | 60 | 93.5 | 72.5 | 125 | 41.8 | 20.2 | 70.9 | 25.6 | 93.6
21 | C[C@]12O[C@H](C[C@]1(O)CO)n1c3ccccc3c3c4c(c5c6ccccc6n2c5c31)CNC4=O [Lestaurtinib] + CCN(CC)CCNC(=O)c1c(C)[nH]c(/C=C2\C(=O)Nc3ccc(F)cc32)c1C [sunitinib] (first compound 0.02 µM, partner dose 2 µM) | 67.3 | 50.3 | 53 | 34 | 85.8 | 49 | 59 | 94.9 | 49.4 | 39.7
22 | Cn1cc(C2=C(c3cn(C4CCN(Cc5ccccn5)CC4)c4ccccc34)C(=O)NC2=O)c2ccccc21 [Enzastaurin] + CO[C@@H]1[C@H](N(C)C(=O)c2ccccc2)C[C@H]2O[C@]1(C)n1c3ccccc3c3c4c(c5c6ccccc6n2c5c31)C(=O)NC4 [Midostaurin] (first compound 4 µM, partner dose 0.4 µM) | 51.4 | 52.7 | 47.6 | 45 | 51.4 | 46 | 45 | 28.4 | 26.7 | 63.5

Reference: the supplement of paper PMC4604168 (melanoma cell lines)
